PubChem BioAssay (NCATS)
Some of the results follow. These are further read-outs of the screen, such as a control signal, another cell line or another target. No call is given for them. Most of these compounds were active or inconclusive in the main read-out, so they are no random draw. Potencies come from curve fits of mixed quality, noted in brackets.

What follows are compounds tested against Catechol O-methyltransferase (Homo sapiens) (UniProt P21964) (assay: Confirmatory Screen for Target Class Profiling of Small Molecule Inhibitors of Methyltransferases (AID 1745852;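 also: inhibitor potency for blocking SAH production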)). Conditions: MTase-Glo luminescence, SAH detection, recombinant enzyme; measured here: COMT inhibition potency.
Tags tell the direction and shape of the fitted curve.

Chain of UniProt P21964 (P21964 whole entry, looked up): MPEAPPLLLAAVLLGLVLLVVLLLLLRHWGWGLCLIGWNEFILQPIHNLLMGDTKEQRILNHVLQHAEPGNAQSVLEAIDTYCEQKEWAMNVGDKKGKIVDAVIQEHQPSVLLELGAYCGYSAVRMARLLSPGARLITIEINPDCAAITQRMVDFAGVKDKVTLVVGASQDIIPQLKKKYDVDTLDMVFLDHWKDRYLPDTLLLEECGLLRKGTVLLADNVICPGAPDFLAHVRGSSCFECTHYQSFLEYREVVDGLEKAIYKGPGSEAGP

SMILES	IC50
C=C(C(=O)O)[C@@H]1CC[C@@]2(C)CC[C@H](O)[C@@]2(C(C)=O)C1	19.2 µM [falling, partial curve]
C[C@]12CC[C@@H]3c4ccc(O)c(O)c4CC[C@H]3[C@@H]1CCC2=O	12.1 µM [falling, full curve]
COc1cc(/C=C/C(=O)OC[C@H]2O[C@@](CO)(O[C@H]3O[C@H](CO)[C@@H](O)[C@H](O)[C@H]3O)[C@@H](OC(=O)/C=C/c3ccc(O)c(OC)c3)[C@@H]2O)ccc1O	5.07 µM [falling, partial curve]
CC1=CC(=O)C2(OC3OC(C)C(O)C(OC(=O)/C=C/c4ccccc4)C3O)C=COC(OC3OC(CO)C(O)C(O)C3O)C12 (configuration not stated)	6.38 µM [falling, partial curve]
CC(C)(O)C1CC=C(C(=O)OC[C@H]2O[C@@H](OC(=O)C3=CCC(C(C)(C)O)CC3)[C@H](O)[C@@H](O)[C@@H]2O)CC1 (some centres not stated)	8.35 µM [falling, partial curve]
Cc1ccc(-c2ccc(N)nc2)c2cccnc12	19.2 µM [falling, partial curve]
COc1ccc(/C=C/C(=O)O[C@@H]2[C@@H](OC(C)=O)[C@@H](OC(C)=O)[C@H](O[C@H]3[C@@H]4C=CO[C@@H](O[C@@H]5O[C@H](CO)[C@@H](O)[C@H](O)[C@H]5O)[C@@H]4[C@@]4(CO)O[C@@H]34)O[C@H]2C)cc1O	1.43 µM [falling, full curve]
CC1(C)CCC2(C(=O)OC3OC(COC4OC(CO)C(O)C(O)C4O)C(O)C(O)C3O)CCC3(C)C(=CCC4C5(C)CCC(O)C(C)(C(=O)O)C5CCC43C)C2C1O (configuration not stated)	4.08 µM [falling, partial curve]
C=C(C)C1Cc2cc(C(=O)OC3OC(CO)C(O)C(O)C3O)ccc2O1 (configuration not stated)	7.48 µM [falling, partial curve]
COc1ccc(CCO[C@@H]2O[C@H](CO[C@@H]3OC[C@H](O)[C@H](O)[C@H]3O)[C@@H](O)[C@H](O)[C@H]2O)cc1	2.64 µM [falling, full curve]
C=C1C(=O)OC2/C=C(\CO)CC/C=C(\C=O)C(OC)C(OC(=O)C(C)CC)C12 (configuration not stated)	0.527 µM [falling, full curve]
CC(CCC1C(C(=O)O)=CC(=O)CC1(C)C)O[C@@H]1O[C@H](CO)[C@@H](O)[C@H](O)[C@H]1O (some centres not stated)	2.66 µM [falling, full curve]
CC1=C2CC3C(CCC3(C)O)C(C)(O)CC2OC1=O (configuration not stated)	1.36 µM [falling, full curve]
C=C[C@H]1[C@H](O[C@@H]2O[C@H](CO)[C@@H](O)[C@H](O)[C@H]2O)OC=C(C(=O)OC)[C@H]1CCO	4.72 µM [falling, full curve]
COc1cc(C(O)C(CO)Oc2ccc(CCCO[C@@H]3O[C@@H](C)[C@H](O)[C@@H](O)[C@H]3O)cc2OC)ccc1O (some centres not stated)	6.63 µM [falling, partial curve]
CC/C=C\CCO[C@@H]1O[C@H](CO)[C@@H](O)[C@H](O)[C@H]1O	3.83 µM [falling, partial curve]

SMILES	IC50
C=C1CC/C=C(/CO)C(=O)C[C@@H]2[C@@H]1C[C@@]2(C)COC(C)=O	12.1 µM [falling, partial curve]
C=C1C(=O)O[C@@H]2/C=C(\C)C(=O)/C=C/[C@](C)(O)C[C@@H](OC(=O)C(C)C)[C@@H]12	4.21 µM [falling, full curve]
C[C@](Cc1ccc(O)c(O)c1)(NN)C(=O)O	7.69 µM [rising, partial curve]
COc1cc(C2Oc3c(OC)cc(/C=C/C(=O)OC4CC(O)(C(=O)O)CC(O)C4O)cc3C2CO)ccc1O (configuration not stated)	8.35 µM [falling, partial curve]
COc1cc(/C=C/C(=O)OCC2OC(OC3(CO)OC(CO)C(O)C3O)C(O)C(O)C2O)ccc1O (configuration not stated)	7.44 µM [falling, partial curve]
C=C1C(=O)OC[C@@H]1C/C=C(\C)CC1CC(C)C(=O)O1 (some centres not stated)	3.41 µM [falling, full curve]
CN(C)[C@@H]1C(=O)C(C(N)=O)=C(O)[C@@]2(O)C(=O)C3=C(O)c4c(O)ccc(Cl)c4[C@@H](O)[C@H]3C[C@@H]12	19.3 µM [falling, partial curve]
CC1=CC(=O)C2C(C)(C)CCCC2(C)C12CCC1(COC(=O)C1)O2 (configuration not stated)	1.88 µM [falling, full curve]
CSC(=O)OCC1=C[C@@H]2OC(=O)C3=CO[C@@H](O[C@@H]4O[C@H](CO)[C@@H](O)[C@H](O)[C@H]4O)[C@H]1[C@@H]32	4.7 µM [falling, partial curve]
COc1cc(C(=O)OC[C@H]2O[C@@H](Oc3ccccc3/C=C/C(=O)O)[C@H](O)[C@@H](O)[C@@H]2O)cc(OC)c1OC	3.32 µM [falling, full curve]
CCN(CC)Cc1cnc2c(C(=O)N3CCCN4CCC[C@H]4C3)cnn2c1	24.1 µM [falling, partial curve]
CC1(CO)CC(O)[C@]2(C(=O)O)CCC34CC3(C=CC3[C@]5(C)C(CC[C@]34C)C(C)(CO)[C@@H](O)[C@H](O)[C@@H]5O)C2C1 (some centres not stated)	8.35 µM [falling, partial curve]
C=C1C(=O)OC2/C=C(\CO)CC/C=C(\C=O)CC(OC(=O)CC(C)C)C12 (configuration not stated)	5.95 µM [falling, partial curve]
O=C(O)CCc1cccc(O[C@@H]2O[C@H](CO)[C@@H](O)[C@H](O)[C@H]2O)c1O	10.6 µM [falling, partial curve]
CC(=O)OC/C(=C/C(=O)O)CC[C@@H]1C(C)=CC(=O)[C@@H]2C(C)(C)CCC[C@@]12C	11.9 µM [falling, partial curve]
CC(=O)OC/C(=C/C(=O)O)CC[C@@H]1C(CO)=CC[C@@H]2C(C)(C)CCC[C@@]12C	6.67 µM [falling, partial curve]
